# Experimental data as given in the supplement of paper PMC10369915.
# This is one part of the list. No stated cut-off is given here; in the data, active = 3.2 or more and inactive = the rest. Only a few entries rise above the background.
# B1: STK11_Y156_F157S (peptide)
# chain: CQAHGYSCQLI
# B2: STK11_Y60_G56W (peptide)
# chain: LWEGSYGKVKE
# B3: STK11_Y36_Q37L (peptide)
# chain: STEVIYLPRRK
# B4: SYT1_Y365_D366E (peptide)
# chain: VTVLDYEKIGK
# B5: SYCN_Y108 (peptide)
# chain: FSAGTYPRLEE
# B6: TBX15_Y159_H156N_YF (peptide)
# chain: DPNQQYFIAMD
# B7: TBL1X_Y509_H504Y (peptide)
# chain: YQEPVYSVAFS
# B8: SUMF1_Y344_R349W (peptide)
# chain: SYCYRYRCAAW
# B9: STAT1_Y701_L706S (peptide)
# chain: PKGTGYIKTES
# B10: SUMF1_Y344_R345C (peptide)
# chain: SYCYRYCCAAR
# B11: TAF1L_Y1385_P1389S (peptide)
# chain: TVHCDYLNISH
# B12: SUGP2_Y985_D986G (peptide)
# chain: PVRIAYGRPRG
# B13: SUMF1_Y344_R349Q_YF (peptide)
# chain: SFCFRYRCAAQ
# B14: SYNE2_Y570_I574T (peptide)
# chain: SDVCMYRKNTY
# B15: TARSL2_Y457 (peptide)
# chain: LSPNMYNSKLW
# B16: TASOR_Y1043 (peptide)
# chain: QKNVSYVSTVS
# B17: STOX1_Y610_YF (peptide)
# chain: LRFEVYGGENE
# B18: SYP_Y250_D248N (peptide)
# chain: APGNAYGDAGY
# B19: TBK1_Y354_R357Q (peptide)
# chain: NQELIYEGQRL
# B20: SYTL4_Y366 (peptide)
# chain: AFSLKYEQQTQ
# B21: STK11_Y362_T367M (peptide)
# chain: EDDIIYTQDFM
# B22: TBX15_Y159_YF (peptide)
# chain: DPHQQYFIAMD
# B23: SYNE2_Y575 (peptide)
# chain: YRKNIYNVKST
# B24: TEK_Y1102 (peptide)
# chain: EERKTYVNTTL
# B25: STAT1_Y668_K673R (peptide)
# chain: PLKYLYPNIDR
# B26: SYNE2_Y575_I574T_YF (peptide)
# chain: FRKNTYNVKST
# B27: SYNE2_Y570_YF (peptide)
# chain: SDVCMYRKNIF
# B28: TARSL2_Y457_L461F (peptide)
# chain: LSPNMYNSKFW
# B29: STAT1_Y203_K201M (peptide)
# chain: LLKMMYLMLDN
# B30: STK11_Y156_L160P (peptide)
# chain: CQAHGYFCQPI
# B31: SYTL4_Y366_E367D (peptide)
# chain: AFSLKYDQQTQ
# B32: TCTE3_Y87_R88I (peptide)
# chain: KFANSYIMEPL
# B33: SYP_Y73 (peptide)
# chain: EVEFEYPFRLH
# B34: STAT1_Y203 (peptide)
# chain: LLKKMYLMLDN
# B35: TACC3_Y684_E680K (peptide)
# chain: FKEVVYQAMEE
# B36: STXBP1_Y411_R406H (peptide)
# chain: HIILLYIFLKN
# B37: SYNE2_Y570 (peptide)
# chain: SDVCMYRKNIY
# How the values were obtained:
# Experiment in all cases: enrichment score (SH2-bound / input frequency) (ratio); bacterial display of known human phosphotyrosine sites (pTyr-Var adds point mutants) read by sequencing; higher = stronger binding; tyrosines were phosphorylated by kinases first
# Settings in all cases: peptide library: pTyr-Var
# SHP2 C-SH2 domain E139D = biological target: SHP2 C-SH2 domain E139D
# [1] = biological target: SHP2 C-SH2 domain wild-type
# SHP2 N-SH2 domain L43F = biological target: SHP2 N-SH2 domain L43F
# SHP2 N-SH2 domain T42A = biological target: SHP2 N-SH2 domain T42A
# SHP2 N-SH2 domain T52S = biological target: SHP2 N-SH2 domain T52S
# [2] = biological target: SHP2 N-SH2 domain wild-type
# 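Further: displayed peptides selected on beads carrying the immobilized SH2 domain, with library peptides lacking any tyrosine serving as negative controls.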
Binder,enrichment score (SHP2 C-SH2 domain E139D),enrichment score [1],enrichment score (SHP2 N-SH2 domain L43F),enrichment score (SHP2 N-SH2 domain T42A),enrichment score (SHP2 N-SH2 domain T52S),enrichment score [2]
B1,inactive: 1.3,inactive: 1.06,inactive: 1.21,inactive: 0.88,inactive: 0.962,inactive: 0.843
B2,inactive: 0.613,inactive: 0.56,inactive: 0.696,inactive: 0.689,inactive: 0.824,inactive: 0.892
B3,inactive: 0.215,inactive: 0.297,inactive: 0.275,inactive: 0.177,inactive: 0.227,inactive: 0.208
B4,inactive: 1.13,inactive: 0.707,inactive: 0.985,inactive: 0.755,inactive: 0.88,inactive: 1.19
B5,inactive: 0.842,inactive: 0.762,inactive: 0.68,inactive: 0.735,inactive: 0.775,inactive: 0.894
B6,inactive: 0.641,inactive: 0.649,inactive: 0.782,inactive: 0.578,inactive: 0.877,inactive: 0.838
B7,inactive: 0.905,inactive: 0.916,inactive: 1.1,inactive: 0.747,inactive: 0.939,inactive: 1.17
B8,active: 4.2,active: 3.38,active: 3.97,active: 3.35,active: 3.76,active: 3.37
B9,inactive: 0.683,inactive: 0.819,inactive: 0.517,inactive: 0.649,inactive: 0.786,inactive: 0.916
B10,inactive: 0.764,inactive: 0.417,inactive: 0.402,inactive: 0.566,inactive: 0.486,inactive: 0.419
B11,inactive: 1.84,inactive: 2.36,inactive: 1.58,inactive: 2.23,inactive: 1.68,inactive: 1.9
B12,inactive: 0.34,inactive: 0.283,inactive: 0.186,inactive: 0.164,inactive: 0.325,inactive: 0.284
B13,active: 3.73,inactive: 2.98,active: 3.3,inactive: 2.79,active: 3.24,inactive: 2.65
B14,inactive: 0.505,inactive: 0.722,inactive: 0.612,inactive: 0.462,inactive: 0.469,inactive: 0.515
B15,inactive: 1.02,inactive: 0.877,inactive: 0.84,inactive: 0.946,inactive: 0.86,inactive: 0.602
B16,inactive: 0.755,inactive: 0.805,inactive: 0.725,inactive: 2.16,inactive: 0.587,inactive: 0.84
B17,inactive: 1.25,inactive: 1.48,inactive: 1.25,inactive: 1.26,inactive: 1.25,inactive: 1.41
B18,inactive: 0.65,inactive: 0.454,inactive: 0.542,inactive: 0.488,inactive: 0.564,inactive: 0.687
B19,inactive: 0.79,inactive: 0.647,inactive: 0.841,inactive: 0.713,inactive: 0.658,inactive: 0.598

Binder,enrichment score (SHP2 C-SH2 domain E139D),enrichment score [1],enrichment score (SHP2 N-SH2 domain L43F),enrichment score (SHP2 N-SH2 domain T42A),enrichment score (SHP2 N-SH2 domain T52S),enrichment score [2]
B20,inactive: 0.802,inactive: 0.827,inactive: 0.825,inactive: 0.921,inactive: 0.827,inactive: 0.962
B21,inactive: 0.456,inactive: 0.602,inactive: 0.51,inactive: 0.489,inactive: 0.461,inactive: 0.627
B22,inactive: 0.85,inactive: 0.773,inactive: 0.833,inactive: 0.804,inactive: 0.865,inactive: 0.97
B23,inactive: 0.637,inactive: 0.347,inactive: 0.57,inactive: 0.572,inactive: 0.731,inactive: 0.489
B24,inactive: 1.09,inactive: 1.22,inactive: 1.09,inactive: 0.993,inactive: 1.04,inactive: 0.958
B25,inactive: 1.14,inactive: 1.61,active: 3.38,active: 3.83,active: 3.94,inactive: 2.15
B26,inactive: 0.45,inactive: 0.404,inactive: 0.414,inactive: 0.382,inactive: 0.503,inactive: 0.515
B27,inactive: 0.884,inactive: 1.04,inactive: 0.838,inactive: 0.486,inactive: 0.615,inactive: 1.18
B28,inactive: 0.965,inactive: 0.911,inactive: 0.948,inactive: 1.31,inactive: 1.01,inactive: 1.06
B29,active: 5.13,active: 4.64,active: 4.8,active: 3.77,active: 3.68,active: 4.31
B30,inactive: 1.5,inactive: 1.34,inactive: 1.47,inactive: 1.1,inactive: 1.43,inactive: 1.48
B31,inactive: 1.2,inactive: 1.18,inactive: 1.23,inactive: 1.17,inactive: 1.25,inactive: 1.05
B32,inactive: 0.829,inactive: 0.763,inactive: 0.877,inactive: 0.786,inactive: 0.757,inactive: 0.794
B33,inactive: 0.972,inactive: 0.737,inactive: 1.39,inactive: 0.651,inactive: 0.772,inactive: 0.856
B34,inactive: 3.18,inactive: 2.62,inactive: 2.98,inactive: 3.01,inactive: 3.17,inactive: 2.8
B35,inactive: 1.04,inactive: 1.33,inactive: 1.08,inactive: 1.13,inactive: 0.969,inactive: 1
B36,inactive: 1.33,inactive: 0.858,inactive: 1.52,inactive: 0.813,inactive: 1.16,inactive: 0.858
B37,inactive: 0.774,inactive: 0.673,inactive: 0.674,inactive: 0.475,inactive: 0.613,inactive: 1.01
